# Laboratory results: publication PMC4336329 (PLoS ONE, 2015)
# In all, about 310,000 compounds went through this assay and about 2,200 (0.71%) showed an effect of 50% or more. Effects have a minus sign here. This is one part of the list.
# Target: human ether-à-go-go-related gene (hERG) potassium channel (human, UniProt Q12809)
# Assay: primary screen, population patch clamp on CHO cells stably expressing hERG
# human ether-à-go-go-related gene (hERG) potassium channel, sequence (Q12809 whole entry, looked up): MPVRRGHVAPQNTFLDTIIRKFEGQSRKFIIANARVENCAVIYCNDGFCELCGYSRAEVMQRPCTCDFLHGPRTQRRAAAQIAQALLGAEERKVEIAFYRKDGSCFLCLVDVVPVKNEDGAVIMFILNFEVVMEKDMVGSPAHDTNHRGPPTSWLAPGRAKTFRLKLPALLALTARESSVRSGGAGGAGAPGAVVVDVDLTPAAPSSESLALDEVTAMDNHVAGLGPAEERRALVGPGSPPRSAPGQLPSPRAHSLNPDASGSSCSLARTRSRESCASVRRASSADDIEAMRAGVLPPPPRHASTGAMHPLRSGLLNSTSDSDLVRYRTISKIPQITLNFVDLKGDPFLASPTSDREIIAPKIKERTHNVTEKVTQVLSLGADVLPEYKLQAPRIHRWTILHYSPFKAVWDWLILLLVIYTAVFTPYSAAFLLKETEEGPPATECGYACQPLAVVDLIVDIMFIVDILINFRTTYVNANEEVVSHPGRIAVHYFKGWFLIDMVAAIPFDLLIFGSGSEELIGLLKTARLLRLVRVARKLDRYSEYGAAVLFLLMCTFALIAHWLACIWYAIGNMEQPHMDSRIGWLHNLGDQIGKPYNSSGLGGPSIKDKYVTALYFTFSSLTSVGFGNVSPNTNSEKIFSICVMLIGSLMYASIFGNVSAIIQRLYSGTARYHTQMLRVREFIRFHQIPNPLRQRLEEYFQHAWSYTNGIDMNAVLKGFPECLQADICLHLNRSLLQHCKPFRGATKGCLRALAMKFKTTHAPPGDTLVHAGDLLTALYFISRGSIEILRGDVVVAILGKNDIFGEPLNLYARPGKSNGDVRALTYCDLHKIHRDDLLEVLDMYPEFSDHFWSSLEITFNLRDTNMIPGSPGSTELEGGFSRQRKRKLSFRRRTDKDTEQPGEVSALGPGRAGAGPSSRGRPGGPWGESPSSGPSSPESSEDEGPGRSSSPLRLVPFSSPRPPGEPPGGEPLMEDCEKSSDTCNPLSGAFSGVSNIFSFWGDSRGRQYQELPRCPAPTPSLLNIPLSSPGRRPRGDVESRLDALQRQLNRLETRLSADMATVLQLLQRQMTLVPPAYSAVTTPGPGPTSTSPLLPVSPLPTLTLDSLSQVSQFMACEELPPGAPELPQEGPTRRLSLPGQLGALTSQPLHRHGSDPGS
row,SMILES,"hERG current change (%, negative = inhibition) at 1uM [%]"
1,CCCn1c(CCc2ccccc2)nnc1SCC(=O)N1CCOCC1,10.8
2,COC(=O)c1ccc(-c2nc(CN3CCCN(C(=O)c4ccco4)CC3)c(C)o2)cc1,-15
3,COc1ccc2nc(NC(=O)c3ccoc3C)sc2c1,17.6
4,Cc1ccc2oc(-c3cccc(NC(=O)c4ccccn4)c3)nc2c1,13
5,COc1cc(C(=O)NCCC(=O)NCCN2CCOCC2)cc(OC)c1OC,0.546
6,O=C(CN1C(=O)NC2(CCCC2)C1=O)OCc1cccc(Br)c1,2.52
7,Cc1ccc(NC(=O)COc2ccc(-n3cnnn3)cc2)cc1C,6.87
8,COc1ccc(-n2nc([N+](=O)[O-])c(=NCCc3ccc(OC)c(OC)c3)n2O)cc1,3.61
9,COc1ccc(-c2nn(-c3ccccc3)cc2/C=C/C(=O)N2CCN(c3ccccn3)CC2)cc1,11
10,Cn1nc(C(=O)OCC(=O)Nc2ccc(Cl)cc2Cl)c2ccccc2c1=O,15.4
11,Cc1ccc(NC(=O)CN2C(=O)N/C(=C/c3ccccc3OCc3cccc(C(=O)O)c3)C2=O)cc1,18.1
12,Cc1[nH]n(-c2ccccc2)c(=O)c1C=Nc1ccc(S(=O)(=O)Nc2nccs2)cc1,12.2
13,OC1(c2ccc3c(c2)OCO3)CCN(Cc2ccc(F)cc2)CC1,-25
14,CC(C)COc1ccc(CNC(=S)Nc2ccccc2)cc1Cl,9.44
15,COc1ccc(CC(=O)NCCS(=O)(=O)N2CCN(c3ccccc3)CC2)cc1OC,0.961
16,O=C(CN1C(=O)c2cccc3cccc1c23)N1CCN(c2ccccc2)CC1,5.53
17,COc1ccccc1OCC(=O)N/N=C/c1cccc2cccnc12,4.53
18,O=C(CN1C(=O)CC(c2ccco2)Sc2ccccc21)NCC1CCCO1 (stereo not drawn),-2.8
19,O=C(NCc1ccccc1)[C@@H]1C[C@H]1[C@@H](NP(=O)(c1ccccc1)c1ccccc1)c1ccccc1,18.1
20,O=S1(=O)CCN(Cc2csc(-c3cccs3)n2)CC1,7.56
21,COc1ccc(/C=N/NC(=O)c2cccc(NC(=O)c3ccc(F)cc3)c2)c(C(=O)O)c1OC,15.3
22,CN(C(=O)c1ccccc1C(=O)OCC(=O)NCc1ccccc1)C1CCCCC1,1.26

row,SMILES,"hERG current change (%, negative = inhibition) at 1uM [%]"
1,CC(=O)c1c(C)[nH]c(C(=O)Nc2ccc3c(c2)OCCO3)c1C,13.6
2,CN1C(=O)CC(N2CCN(C(=O)CN3CCCC3)CC2)C1=O (stereo not drawn),-8.6
3,O=C(NCCc1nc2ccccc2[nH]1)/C(=C/c1ccc2c(c1)OCO2)NC(=O)c1ccc(Cl)cc1Cl,-73.9
4,CCOC(=O)Cn1c(=O)oc2cc(S(=O)(=O)N3CCN(c4ccccn4)CC3)ccc21,6.6
5,Cc1cnc(NC(=O)c2ccco2)s1,13.9
6,CC(C)N(Cc1ccccc1)C(=S)NC1CCCCC1,8.23
7,Cc1ccc(CN2CCC(n3nccc3NC(=O)CCCc3ccccc3)CC2)o1,4.19
8,CCC1(C)Cc2ccccc2-c2nc(NCCO)n(-c3ccc(C)cc3)c(=O)c21 (stereo not drawn),-0.202
9,Cl.N=c1sccn1CC(=O)Nc1ccc2c(c1)CCC2,0.818
10,C/C(=N\NC(=O)c1ccc(Br)cc1)c1cccc(NC(=O)c2cccnc2)c1,6.03
11,Cc1ccc2c(N)c(C(=O)c3ccccc3)sc2n1,11.6
12,COc1ccc(/C=C/C(=O)OCC(=O)NC2CCS(=O)(=O)C2)cc1 (stereo not drawn),8.9
13,Cc1ccc(C(=O)NCC(=O)NCC(c2cccs2)N2CCOCC2)cc1 (stereo not drawn),14
14,O=C(COc1ccccc1Cl)Nc1ccccc1C(=O)N1CCCCC1,13
15,O=C(NCCc1ccccc1)C(=O)NCC1OCCCN1S(=O)(=O)c1cccs1 (stereo not drawn),9.51
16,O=C(NNS(=O)(=O)c1ccc(F)cc1)c1cnccn1,12.6
17,CCOc1cc(/C=N/NC(=O)CCn2nnc3ccccc32)ccc1O,9
18,Cc1ccc(Nc2nc(NCCO)c3ccccc3n2)cc1C.Cl,14.5
19,CN1C(=O)NC(c2cccc(F)c2)C2=C1CC(C)(C)CC2=O (stereo not drawn),-0.0235
20,O=C(c1cc(-c2ccc3c(c2)OCO3)on1)N1CCOCC1,8.23
21,N/C(CCS(=O)(=O)c1ccc(Cl)cc1)=N\OC(=O)c1ccc(Cl)cc1,9.88
22,C=CCn1c(COc2ccccc2F)nnc1SCC(=O)Nc1cc2oc3ccccc3c2cc1OC,8.2

row,SMILES,"hERG current change (%, negative = inhibition) at 1uM [%]"
1,CC1CCc2[nH]c3ccc(C(=O)NCCCOC(C)C)cc3c2C1 (stereo not drawn),6.32
2,COc1ccc(NC(=O)Nc2c(O)ccc3ccccc23)cc1,9.84
3,CC(=O)c1cccc(NC(=O)COC(=O)c2cccs2)c1,2.15
4,COc1ccc(/C=N/n2cncn2)cc1CSc1ccccn1,4.78
5,COc1ccc2nc(SC)c(C#N)cc2c1,6.11
6,Cc1ccc(NC(=O)Nc2cccc([N+](=O)[O-])c2)nc1,14.5
7,O=C(Nc1nnc(SCC(=O)N2CCCc3ccccc32)s1)c1ccccc1,8.42
8,Cc1cccc(N(CC(=O)NC(C)(C)C)C(=O)CS(=O)CC(=O)Nc2ccc(F)cc2)c1 (stereo not drawn),24.9
9,CCOC(=O)[C@@H]1[C@H]2COc3ccccc3[C@H]2N2C(=O)N(c3ccc(Cl)cc3)C(=O)[C@]12C,4.74
10,CCOc1cc(/C=C(/NC(C)=O)C(=O)O)cc(Cl)c1OCc1cccc(Br)c1,5.06
11,c1ccc(C2(CN3CCNC[C@H]3Cc3cccc4ccccc34)CC2)cc1,3.83
12,CCCn1c2c(c(O)c(C(=O)Nc3nc4ccccc4s3)c1=O)CCCC2,20.9
13,COc1ccc(-c2nc(N)n[nH]2)cc1OC,15.9
14,CC1(C)OC(=O)C(=CNC(CCC(N)=O)C(=O)O)C(=O)O1 (stereo not drawn),11.7
15,CN(C)CCOC(=O)c1ccc2c(c1)S(=O)(=O)c1ccccc1C2=O.Cl,7.79
16,Cc1cccc(NC(=O)CSc2nc3[nH]c(=O)cc(O)c3s2)c1,4.34
17,COc1cccc(CN2CCNC(=O)C2CC(=O)NCCn2cccn2)c1OC (stereo not drawn),14.4
18,COc1ccc(CNC(=O)CS(=O)Cc2nc(-c3ccc(C)cc3)oc2C)cc1 (stereo not drawn),5.87
19,CC1CC1C(=O)OCC(=O)NC(=O)c1ccccc1 (stereo not drawn),9.5
20,CCOC(=O)N1CCC(n2c(SCC(=O)NCc3ccccc3)nc3ccccc3c2=O)CC1,7.38
21,CCCC(=O)NC(C)C(c1cccs1)N1CCN(C)CC1 (stereo not drawn),4.85
22,CCC(Cc1c(I)cc(I)c(N)c1I)C(=O)O (stereo not drawn),8.87

row,SMILES,"hERG current change (%, negative = inhibition) at 1uM [%]"
1,O=C(NCCc1ccccc1Cl)C1CCC(=O)N(C2CCCCCC2)C1 (stereo not drawn),9.25
2,CC(C)[C@H]1C(=O)Nc2ccccc2N1C(=O)N[C@@H](Cc1ccccc1)C(=O)N[C@H](C(=O)O)c1ccccc1,13
3,COc1ccc(NC(=S)N2CCC(NC(=O)c3cccc(F)c3)CC2)cc1,2.3
4,COc1cc(S(=O)(=O)N2CCCCC2)ccc1NC(=O)Cc1ccccc1,12.2
5,COCCn1c(=O)[nH]c2cc(C(=O)N3CCN(c4ccccc4OC)CC3)ccc2c1=O,2.25
6,COc1ccc(NC(=O)c2cc(-c3ccccc3)on2)cc1,13.8
7,COCCNC(=O)c1ccccc1-c1nc(-c2ccccc2Cl)no1,-3.66
8,Cc1[nH]nc2c1C(c1ccccc1F)CC(=O)N2 (stereo not drawn),-1.84
9,Cc1ccccc1OCC(=O)OCC(=O)Nc1cc(S(=O)(=O)N2CCCCC2)ccc1Cl,9.54
10,CCc1cc2c(SCc3ccc(C(=O)OC)o3)ncnc2s1,20.7
11,Cn1c(SCc2nc(-c3ccc(Cl)cc3)no2)nnc1-c1cccs1,-0.507
12,CCOc1cc(C2C3=C(CC(C)(C)CC3=O)N(CCCOC)C3=C2C(=O)CC(C)(C)C3)ccc1OC,5.09
13,Cc1ccc(OCCSc2cc(C)nc(N)n2)cc1,4.35
14,Cc1ccc(-n2nc3c(c2NC(=O)c2ccccc2)CS(=O)(=O)C3)cc1C,-0.502
15,Cc1ccc(Nc2nc(Cl)nc(NC3CCCCC3)n2)cc1,16.5
16,O=C(NCCO)C(F)(F)C(F)(F)C(F)(F)OC(F)(C(=O)NCCO)C(F)(F)F (stereo not drawn),12.3
17,Cc1cc(C)n(C(=O)CNC(=O)c2ccco2)n1,10.2
18,O=C1c2[nH]nc(-c3ccccc3O)c2C(c2cccc(O)c2)N1Cc1ccco1 (stereo not drawn),1.45
19,COc1cccc(-n2nnnc2SCC(=O)Nc2ccc3c(c2)OCCO3)c1,7.76
20,Cc1cc(Nc2cc(Cl)nc(Sc3ccc(NC(=O)C4CC4)cc3)n2)n[nH]1,6.75
21,Nc1nc2nc(-c3ccc(F)cc3)cc(C(F)(F)F)n2n1,4.47
